In the RNAGym collection of RNA variant scans (doi:10.7554/elife.90254):
Read counts are not given, so values of variants with three or more changes are uncertain.

B1: LINE1-mini (parent)
chain: GGCAGAGCUCAACACAGCGUGGCAAAGUGGCUGUGGCUAGACUGCC

Variants of: B1
Test: self-cleavage, relative activity (ratio to wild type); higher = more cleavage; in vitro, sequencing; the parent is a self-cleaving ribozyme

Row | Variant | self-cleavage
1 | G5C G29U G33A | 0.14
2 | G5U C10A G22U C23U U38C | 0.01
3 | G5U C13G C15U G27A U38C | 0.08
4 | G5C A16U U32G U34A C45U | 0.01
5 | G5U A25G G35U | 0.01
6 | G5C C10U G35A | 0.04
7 | G5C C18A C31G | 0.03
8 | G5C G22A G27A G29U U34A | 0.02
9 | G5C U20C U28A C45U C46A | 0.04
10 | G5C G19A U28A | 0.04
11 | G5U C10U G36A C45U | 0.07
12 | G5U C10A G21U | 0.05
13 | G5U A6G A24G | 0.1
14 | G5C G21A G22C C31U G33U | 0.02
15 | G5C U9C C15A | 0.04
16 | G5C G19C C42A | 0.02
17 | G5U C15G G17U C23G | 0.04
18 | G5U A24C G27C | 0.02
19 | G5U C15G G17A | 0.05
20 | G5U C13G A24C G44C | 0.02
21 | G5C C18A A26U G29U G33U G36A | 0.03
22 | G5C U38A C45G | 0.02
23 | G5C U20A G40A | 0.14
24 | G5U C13G G17A C42A | 0.01

Row | Variant | self-cleavage
25 | G5U C8A C13G G36C C46A | 0.11
26 | G5U A14U G40U | 0.01
27 | G5C G17A C23A A41G | 0.01
28 | G5C U34G C42A U43G | 0.02
29 | G5U C10A C45U | 0.02
30 | G5U C10A C45G | 0
31 | G5C G7A G30U C31U U32A G35A A41G | 0.02
32 | G5C A11G U32A G35A C37U U38A | 0.01
33 | G5C C18G C45G | 0.03
34 | G5C A12U U20A U38G | 0.01
35 | G5C C10U G21U A26C G35U C37A | 0.03
36 | G5C C13U C23A | 0.09
37 | G5U C10A G17C A26U G40A | 0.02
38 | G5C C18A A24C G33A U34G C37G | 0.05
39 | G5U A14C G27U | 0.16
40 | G5C C8U C15U G19A A41U | 0.26
41 | G5U C8U A24C G40C | 0.05
42 | G5C G30A C42A G44U | 0.09
43 | G5C A16C G33U | 0.05
44 | G5C G44U C46A | 0.14
45 | G5C C8U U38C A41G | 0.18
46 | G5C A14G G17U C45A | 0.03
47 | G5C C10G G33U C37G | 0.02
48 | G5U A26U C31G G33U G44A | 0

Row | Variant | self-cleavage
49 | G5C C31G U32C | 0
50 | G5U A12G G21U G27A | 0
51 | G5U C8A U20C U38C | 0.23
52 | G5U A11G A24U G29C U43G | 0.01
53 | G5C G19C G29C G33C | 0.01
54 | G5U C8G U34A C46A | 0.16
55 | G5C A25U G27U C46G | 0.02
56 | G5C A11U A12C | 0.03
57 | G5C G7U G30A G33A C45G | 0.04
58 | G5U C10A A11U G19C A25C U28G G29A | 0.01
59 | G5C G22C A41C | 0.29
60 | G5U C23G A26C G36U C42A | 0.03
61 | G5U C18A A25G C31A U43G C46U | 0
62 | G5U C10U C46A | 0.03
63 | G5U A6C U28G C31U U34C C37U U43C | 0.01
64 | G5C C10G G21C | 0.01
65 | G5C C8U G22U C45A | 0.1
66 | G5C C13G G19A C23U A25G U43C | 0.01
67 | G5U C10A A14G C23A A24G A26U | 0.02
68 | G5C C10G G30A G35C | 0.02
69 | G5C G29U C46U | 0.05
70 | G5U A16U A26U U32A G36C C45U | 0.01
71 | G5C A41C C46U | 0.22
72 | G5C G7C A14C U34G A41G C42U C45U | 0.01

Row | Variant | self-cleavage
73 | G5U A11G C31U C45A | 0
74 | G5U C8A G21A G30U | 0.66
75 | G5C A12U U28A U38A | 0
76 | G5U C10A A12C G27C | 0.01
77 | G5C A14C A16G C23U | 0.01
78 | G5C G27A C37G | 0.14
79 | G5C C31G A39G | 0.01
80 | G5C C10U A11U C15U C46A | 0.02
81 | G5C C37G A39G | 0.03
82 | G5U A14C G33U | 0.03
83 | G5C A16C G21C G40U | 0.04
84 | G5C G7U U9C U34G | 0.05
85 | G5C A16U G29A G35U C45U | 0
86 | G5C G19U G30C G33U G40C | 0.01
87 | G5C A25G G27C G36U | 0.07
88 | G5U A14C G19A | 0.31
89 | G5C G21A U28C C31G U32G | 0.09
90 | G5C G29U G33A G35A | 0.03
91 | G5C U20C C46G | 0.04
92 | G5C U20C G21U U28A G36U C46U | 0.02
93 | G5U C10A G35U A39U | 0.01
94 | G5C G21A C23A G30C C45U | 0.03
95 | G5C C15A G21U C31G C45G | 0.01
96 | G5U C18A A25G G30C | 0.01

Row | Variant | self-cleavage
97 | G5U C15G C18U | 0.06
98 | G5U A6U G40U | 0
99 | G5C G30U U43C | 0.15
100 | G5U A25C C46G | 0.05
101 | G5U A14C C18G | 0.01
102 | G5U C13A C18A | 0.03
103 | G5C U9C A12C U38G G40U C45U | 0.03
104 | G5C U20G A39C C45G | 0.04
105 | G5C C8A C13U G29A G40C | 0.16
106 | G5C A24U G29U | 0.15
107 | G5C C10A G27U G30U U38G | 0.01
108 | G5C U9A A24C G30U | 0.05
109 | G5U C23A C46A | 0.11
110 | G5C C13A C15A G30C | 0.07
111 | G5U C15A A16G G27A C42U | 0.08
112 | G5U C10G A12U C15U | 0.03
113 | G5U A6G U28A | 0.07
114 | G5C C15G C18A C45A | 0.02
115 | G5C G21C U32C G35U | 0.23
116 | G5C A14C C15A U20G C45A | 0.02
117 | G5U C15U G19C U34C A41C | 0.02
118 | G5C A39G G44C | 0.11
119 | G5C A11C U32G | 0.01
120 | G5C C15U A24U | 0.06

Row | Variant | self-cleavage
121 | G5U A16G A26G G29A | 0.03
122 | G5U C23A U38C G40A C46U | 0.01
123 | G5C A11U C46A | 0
124 | G5U C15A U38A | 0.08
125 | G5U C15U C45U | 0.08
126 | G5U C10A C13G | 0.03
127 | G5C A14G U20A G33U C42A | 0.21
128 | G5C C10U C13G A16C G44A | 0.04
129 | G5C G33U U34A | 0.03
130 | G5C C15A A16G U28G U32C | 0.01
131 | G5C G36C U43C | 0.03
132 | G5C C15G G30C | 0.02
133 | G5C A12C G22A A26G G30U | 0.01
134 | G5C G30A U38G | 0.26
135 | G5U A14G G22U C23A | 0.01
136 | G5C C10G G22A A39U | 0.04
137 | G5C G30A G33C | 0.02
138 | G5C G30A C31G G40A | 0.11
139 | G5U A14U C18A A41C | 0.03
140 | G5U C15A A24U A39U | 0.05
141 | G5C A16G C18A A24G | 0.01
142 | G5C G7A G19A U34G | 0.06
143 | G5C C23G A24U C31U A39C | 0.04
144 | G5C U20A G33C | 0.03

Row | Variant | self-cleavage
145 | G5U A14G G21A G40U | 0.09
146 | G5U C8G A11G G44A | 0.04
147 | G5U A12G C13A G36C | 0
148 | G5U C13U U43G | 0.11
149 | G5C C23U G27C C31U | 0.01
150 | G5C C18A U43G G44A | 0.03
151 | G5C C15G U32A | 0.03
152 | G5C C8U C10A U32A | 0.02
153 | G5C G21A C31G G36U | 0.02
154 | G5C G21U A24U | 0.09
155 | G5C A11C C42U | 0.05
156 | G5U C13A C18G U32A A39U C45G | 0.02
157 | G5U A11G U20A A25U | 0.02
158 | G5U A12C G35U | 0.01
159 | G5U C10A C42G | 0.03
160 | G5C G22C G40C | 0
161 | G5C U34C C45G | 0.02
162 | G5U A6C G19A G44C | 0.11
163 | G5C C42U C45U | 0.07
164 | G5U A6C C37G | 0.04
165 | G5C C13U A25U | 0.02
166 | G5U A6U G7C U20A A39C | 0.02
167 | G5U C23A A25C U28C G36C G40U | 0.03
